# Test results reported in the supplement of paper PMC11417369.
# ± gives the standard deviation of the averaged measurements. The list shows a part of the results.
# System: PfAP2-I AP2 domain 3 (GST-tagged)
# Experiment: gcPBM binding intensity (ln(normalized median fluorescence intensity)); higher = stronger DNA binding
# Outline: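 In this array assay, P. falciparum DNA-binding domains with a GST tag, expressed in E. coli, were applied for 1 h to primer-extended double-stranded 36-bp intergenic genomic probes and negative controls on an Agilent 4 × 180k array. Bound protein was visualised with Alexa488 anti-GST antibody at 488 nm. Binding intensity is the highest Masliner-normalised natural-log median intensity across replicate spots of either probe orientation.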
row,Sequence,gcPBM binding intensity (ln)
1,CATAATTATGCAATTGCACACAACTATCATTTTTTT [CACACA_site2997],9.95 ± 0.73
2,TTGTATCATATATTATGTACATATTTATTTATTATC [XGTACX_site7723],7.6 ± 0.42
3,CCCATGTAATATTAAACACACACTCATATAACACAA [CACACA_site7906],8.08 ± 0.59
4,ATATTATATCTAATCGTGCACAACTGTACATTTGTC,10.5 ± 0.12
5,ATATTTAAATATATTTATATATATAAAAAAAAATAT [GTGCAC_negctrl_site312],7.87 ± 0.52
6,CAAAATATTTAAAAAAGTACTTAAAATAAATTCAAA [XGTACX_site6866],7.63 ± 0.45
7,AATATAAATAAAAACACACACACACGGATATTTATA [CACACA_site7134],8.12 ± 0.53
8,CACACAACTATCAAGGTGCTAAAATGAAATAATATA [GTGCAC_site9871],9.46 ± 0.19
9,AAGGTGGGAAAAAATAGTACACAACAAAAATGTATG [XGTACX_site8741],8.38 ± 0.18
10,ACATATAAACTGTATACACACAAATATTGCATATAT [CACACA_site6804],8.55 ± 0.45
11,ATATATCTATATGTGTGTACATATAAGTATTTATAT [XGTACX_site5333],7.86 ± 0.26
12,TACATTCTAAATATTACACACTTTATAAAATAATAA [CACACA_site4069],7.72 ± 0.38
13,ATATATATAAATATATGTACTAATATATACATATAT [XGTACX_site2289],8.04 ± 0.54
14,AGAAAAGAGAAATGGGCACACACACCCATATTATAT [CACACA_site8433],7.72 ± 0.59
15,ATATTTCTGTGTGGATGTACATTATTAGCAGGCTTT [XGTACX_site6496],8.12 ± 0.73
16,AAAATATATACACAAACATGCATATAATAAATAAAT [TGCATGCA_site711],7.98 ± 0.83
17,CAAAATAATAATAAAAGTACTAACATATTTATGAAA [XGTACX_site6078],7.79 ± 0.57
18,TTCTTTTTATTTATATTTTCCCCTCTCTATAGCTAT [XGTACX_negctrl_site102],7.95 ± 0.65
19,ATAATTCAAAAAAACACACAAATTACAAAATAAACT [CACACA_site6264],7.88 ± 0.58
20,GATAATTTTTTTCTCACACACAAATATTTTAATCAT [CACACA_site3666],7.91 ± 0.61
21,AAATATATTATATCATATATTAAAGCATATATTAAA [CACACA_negctrl_site1624],7.5 ± 0.39
22,AGGTAAAAATGGTAAGTGCATTAATGATAAAAAATG,11.1 ± 0.18
23,GAATATTCACATACTTGTACATATATATATATATAT [XGTACX_site7302],9.36 ± 0.37

row,Sequence,gcPBM binding intensity (ln)
1,AAAAAAAAAAAACACACACACACACCGACACATACA [CACACA_site5576],8.15 ± 0.23
2,ATATTTTGGGGACTTTTTAAAAAAGAAGTATTAAAA [CACACA_negctrl_site1228],8.19 ± 0.27
3,TGGCAAAATAGGCACACACACATATACCTATAGATT [CACACA_site7168],8.02 ± 0.4
4,GTAAATATATAAACATGTACATATATAAATATATAA [XGTACX_site7262],7.84 ± 0.23
5,TATAAGAATAAAAAGGGTACATAAAATAATAATATA [XGTACX_site2355],7.93 ± 0.51
6,GTTTACATAGATAACTGTACGCAATGATATTAGACA [XGTACX_site1320],8.13 ± 0.028
7,CAAAAAAAATAAAACACACACACAAAAAAATAAAAA [CACACA_site466],7.84 ± 0.59
8,TAATAATAGTACTGACATCGAAATATTATTAAAAAT [CACACA_negctrl_site255],7.71 ± 0.29
9,TTTATATGATATATTACACACAAAAAAAAAAAAAAA [CACACA_site3549],7.99 ± 0.73
10,TAGATACTTGTCATGGGTACATATCGTACCTTTTGG [XGTACX_site6781],7.5 ± 0.37
11,CTCTTCTATATATAAGCATGCATTCATAATAATTTA [TGCATGCA_site679],8.04 ± 0.77
12,ATTTCATTTTATAAGTGTACAATAAAAAAAAAAAAA [XGTACX_site8677],8.31 ± 0.57
13,GTTTACATTAAAAATTGTACTCTGTATGAATAATAT [XGTACX_site80],7.64 ± 0.47
14,CTTAAAAAAACCTTAACACACATAAACTCTAATTTA [CACACA_site7430],7.46 ± 0.39
15,ATATAAACAGAAAATAGTACTTTATATTGAAAAAAA [XGTACX_site7183],7.72 ± 0.61
16,GATGATACAAAGTAATGTACATAAATACACATATTG [XGTACX_site3177],7.79 ± 0.49
17,AAATTTGATATAAAAAGTACAAAATGTTCCTCAGCT [XGTACX_site809],7.61 ± 0.67
18,CATTATGTCGTAAATACACACATACCTATACATACA [CACACA_site6763],7.96 ± 0.61
19,AATATATAGCTAAAAACACACAAATATATACGCATA [CACACA_site3608],7.67 ± 0.49
20,CCATAAGATATATGTAGTACATATTATATATATATA [XGTACX_site2104],9.12 ± 0.014
21,TATACACATATATAAACACACAAAAAAAAAAAAAAA [CACACA_site7041],7.99 ± 0.54
22,TTAAAATTAAAAATGCGTACACATATACATAAAAAA [XGTACX_site1915],8.21 ± 0.4
23,ATTAATTTTAATAAAGGTACACGTAGTTTTTTATTA [XGTACX_site7868],7.53 ± 0.4

row,Sequence,gcPBM binding intensity (ln)
1,AACAAAACCTTATATGTACACACATATACATCACAC [CACACA_site9037],8.32 ± 0.24
2,TATATATATATATATTGTACTGAACGTTTTTTTTTG [XGTACX_site8060],9.38 ± 0.18
3,AATTTATAATTATAGAGTACATATTTTTAATATATA [XGTACX_site2566],7.43 ± 0.43
4,ACAGCTACCAGATACTGTACTTTTCTCCAGACTGCA [XGTACX_site2541],7.94 ± 0.61
5,ATGTGATATAAGTACACACACATATGTATTTATAAC [CACACA_site6942],8.2 ± 0.16
6,ATATACATAATCTTCTTGCACTTTTTTTTTTTTTTT [GTGCAC_site9410],9.47 ± 0.13
7,TATATTTTGTTCTTTCCACACACAAATACATATATT [CACACA_site9348],8.12 ± 0.72
8,ATATACACTTAATTTTTTATAAAAAAAAATTTATAT [CACACA_negctrl_site498],7.66 ± 0.43
9,GTAATAATTTTTTGTAGTACACAAAAATTCATATTT [XGTACX_site2699],8.27 ± 0.23
10,TGCATATACGCAAGCACACATATATATATATATATA [CACACA_site1069],9.52 ± 0.48
11,TTTTGATTTCCTATTGCACACTTTTTTTAAGTTTAT [CACACA_site1056],10.18 ± 0.078
12,TATATATATATATAATGTACATATAATATATTTATT [XGTACX_site7892],9.21 ± 0.33
13,TAAATATATTAATACACACACGATATGTACAAAAAA [CACACA_site540],8.1 ± 0.56
14,GCTTAATGTCATATATCACACATGAAAATATATATA [CACACA_site5089],8 ± 0.55
15,TACGTATTTTAATATTTACACACTTATTTTTTATAT [CACACA_site7924],7.89 ± 0.43
16,GGACAACAAACAAACACACACAAAAAAAAAATAAAA [CACACA_site3791],7.91 ± 0.28
17,TTGTTTCTTTTTTTTTGTACATATATATTGTATATT [XGTACX_site7602],8.03 ± 0.8
18,AATTTTTCAAATTAATGTACTTGTTATAAATTGTAA [XGTACX_site5428],7.54 ± 0.35
19,GGCAATACATAATAATGTACATAATTATATAATATT [XGTACX_site3739],7.71 ± 0.39
20,TATATCTGTTTATATTGTACACATATATATATATAT [XGTACX_site714],9.36 ± 0.61
21,TACAAACACCCATATACACACAAAAAAAAAATAAAA [CACACA_site5421],7.78 ± 0.31
22,AGAAAAACTTATATGATACACACGATAAACAAAATA [CACACA_site1038],7.8 ± 0.6
23,TATATAATATATATATGTACATATATATATGTTTTT [XGTACX_site3347],7.62 ± 0.23

row,Sequence,gcPBM binding intensity (ln)
1,TATACATAAAACAGTTCACACATTGTATGAATATAT [CACACA_site4751],7.53 ± 0.59
2,GTGCAAAATATTTTTACACACAAATTCTTACAACAG [CACACA_site7556],9.98 ± 0.57
3,ATATCTATGTTTATCTCGAATAACTTAAAAAATTAT [CACACA_negctrl_site1131],7.58 ± 0.58
4,TTTATACAAACAACTTTATATTAATGTTTAACGGAG [GTGCAC_negctrl_site396],7.6 ± 0.42
5,AAGGCAAACAAACACACACACATATATACATATATA [CACACA_site2122],8 ± 0.38
6,TCTTTCTAAAGATGTAGTACAAAATAAATATAATAT [XGTACX_site6564],8.07 ± 0.54
7,TAATATGCTCATGTAACACACATTTGCATATTTTTC [CACACA_site1357],7.58 ± 0.53
8,TTATCACACCTTTTTTGTACGAAATAAAAAAAAAAA [XGTACX_site5564],8.19 ± 0.49
9,GATATTATGTGTTTGGTATTTTTTGATGTTGGTAGG [XGTACX_negctrl_site563],8.01 ± 0.35
10,TAGAACAAATAAAACACACACATATAAATATAGATG [CACACA_site7325],7.65 ± 0.73
11,ACATTAAAAAAAAAATGTACATAAATATTTTTCCTT [XGTACX_site4361],7.63 ± 0.65
12,AATTTTATTCATTGAGCACACAAAATAAATTATCAA [CACACA_site9079],8.27 ± 0.43
13,ATCTTTTATATAAAATGTACAGAGTTTGAAAGAATA [XGTACX_site8826],7.8 ± 0.48
14,GTATTACAACGACACACACACCTATATATCATAGTA [CACACA_site7877],8.13 ± 0.57
15,ATACAAATTGTTTAAAGTACAAATTACACCTCTTAA [XGTACX_site6888],7.67 ± 0.68
16,TATATACACATATATAAACACACAAAAAAAAAAAAA [CACACA_site8626],7.95 ± 0.53
17,TGTAAATATATATATACACACACACCGAAGCAATAG [CACACA_site8960],8.33 ± 0.35
18,CATACAGACATACATACACACATACATACAGACATA [CACACA_site6996],7.91 ± 0.37
19,TAAAAAGGAAGACACACACACACATATATAAATATA [CACACA_site7657],7.72 ± 0.44
20,GTATATCACACATTTGCATGTTGTCAATAGTTTATC [TGCATGCA_site134],8.03 ± 0.66
